# According to the supplement of paper PMC6135742:
# Several values for one entry are separate records, joined by “and”; a condition that tells them apart may be missing. Identical values can stand only once. Counter-ions that a name gives are not always drawn. ± gives the standard deviation of the averaged measurements. In all, about 2,600 compounds were measured (“total cell number (DAPI+ nuclei) relative to DMSO vehicle control”: median about -1.4, lowest 2% from about -23 on). This is one part of the list.
# Test system: jimpy (Plp1 jimpy) mouse iPSC-derived oligodendrocyte progenitor cells
# Assay: total cell number (DAPI+ nuclei) relative to DMSO vehicle control (SDs above negative control mean); higher = more surviving cells
# Details: 10 µM; 3 days
row,Compound,total cell number
1,O=c1ccc2c(OCCCCc3ccccc3)c3ccoc3cc2o1 [Psora-4],-1.49
2,CC(C)CN(C[C@@H](O)[C@H](Cc1ccccc1)NC(=O)O[C@H]1CCOC1)S(=O)(=O)c1ccc(N)cc1 [Amprenavir],-0.902
3,O=C(O)C1=CCNCC1 [Isoguvacine hydrochloride],0.101
4,CNC(=C[N+](=O)[O-])NCCSCc1csc(CN(C)C)n1 [Nizatidine],0.598
5,CC1(C)[C@@H](O[C@H]2O[C@H](C(=O)O)[C@@H](O)[C@H](O)[C@H]2O[C@@H]2O[C@H](C(=O)O)[C@@H](O)[C@H](O)[C@H]2O)CC[C@]2(C)[C@H]3C(=O)C=C4[C@@H]5C[C@@](C)(C(=O)O)CC[C@]5(C)CC[C@@]4(C)[C@]3(C)CC[C@@H]12 [Ammonium Glycyrrhizinate],0.599
6,CC1(C)[C@@H](O[C@H]2O[C@H](C(=O)O)[C@@H](O)[C@H](O)[C@H]2O[C@@H]2O[C@H](C(=O)O)[C@@H](O)[C@H](O)[C@H]2O)CC[C@]2(C)[C@H]3C(=O)C=C4[C@@H]5C[C@@](C)(C(=O)O)CC[C@]5(C)CC[C@@]4(C)[C@]3(C)CC[C@@H]12 [Glycyrrhizic Acid],-0.749
7,c1ccc2c(Oc3nc(Nc4ccc(N5CCOCC5)cc4)c4ncn(C5CCCCC5)c4n3)cccc2c1 [Purmorphamine],-9.2
8,C[C@]12C=CC(=O)C=C1CC[C@@H]1C2=CC[C@]2(C)[C@@H](C(=O)CN3CCN(c4cc(N5CCCC5)nc(N5CCCC5)n4)CC3)CC[C@@H]12,-0.429
9,C[C@]12C=CC(=O)C=C1CC[C@@H]1[C@@H]2C(=O)C[C@@]2(C)[C@H]1CC[C@]2(O)C(=O)CO [Prednisone],-1.65
10,COc1cc(NC(=O)c2ccc(-c3ccc(Cl)cc3)o2)cc(OC)c1,-0.0688
11,COc1cc2c(cc1O)[C@@H](Cc1ccc(O)c(Oc3ccc(C[C@@H]4c5cc(OC)c(OC)cc5CCN4C)cc3)c1)N(C)CC2 [Daurisoline],-10
12,C[C@@H]1CN(c2c(F)c(N)c3c(=O)c(C(=O)O)cn(C4CC4)c3c2F)C[C@H](C)N1 [Sparfloxacin],-1.58
13,C[C@@H]1O[C@@H]1P(=O)(O)O [Phosphomycin disodium],-0.127
14,Cn1c(=O)c2[nH]c(-c3ccc(S(=O)(=O)O)cc3)nc2n(C)c1=O [8-(p-Sulfophenyl)theophylline],-1.13
15,CC#CCOC(=O)c1c(C)nc2sc3c(c2c1N)CCC(O)C3 (stereo not given),7.08
16,CCn1cc(C(=O)O)c(=O)c2cc(F)c(N3CCN(C)CC3)cc21 [Pefloxacin Mesylate],0.455
17,CCOC(=O)c1ccc(N2NC(=O)C(=Cc3ccc([N+](=O)[O-])o3)C2=O)cc1,-3.31
18,CCc1cc(C(N)=S)ccn1 [Ethionamide],1.31
19,Cc1ccc(C(=O)Nc2ccc(S(=O)(=O)O)c3cc(S(=O)(=O)O)cc(S(=O)(=O)O)c23)cc1NC(=O)c1cccc(NC(=O)Nc2cccc(C(=O)Nc3cc(C(=O)Nc4ccc(S(=O)(=O)O)c5cc(S(=O)(=O)O)cc(S(=O)(=O)O)c45)ccc3C)c2)c1 [Suramin sodium salt],-1.85
20,Cn1cc(C2=C(c3ccc(Cl)cc3Cl)C(=O)NC2=O)c2ccccc21,6.45 and 3.32
21,O=C(NC(NC(=S)Nc1ccc(F)c([N+](=O)[O-])c1)C(Cl)(Cl)Cl)C(c1ccccc1)c1ccccc1 (stereo not given),-15.7
22,OCc1ccc(O[C@@H]2O[C@H](CO)[C@@H](O)[C@H](O)[C@H]2O)cc1 [Gastrodin],-0.28
23,CCOc1cc2ncc(C#N)c(Nc3ccc(OCc4ccccn4)c(Cl)c3)c2cc1NC(=O)/C=C/CN(C)C [Neratinib (HKI-272)],-12.8
24,Cc1cccc(Nc2cc(Cl)nc(SCC(=O)O)n2)c1C,0.568

row,Compound,total cell number
1,O=C(N/N=C/c1ccc([N+](=O)[O-])o1)c1ccc(O)cc1 [Nifuroxazide],-5.81
2,"Nc1ncnc2c1ncn2[C@@H]1O[C@H](COP(=O)(O)CP(=O)(O)OP(=O)(O)O)[C@H](O)C1O (stereo partly drawn) [alpha,beta-Methylene adenosine 5'-triphosphate dilithium]",-0.958
3,NC(=O)c1ncn([C@@H]2O[C@H](CO)[C@@H](O)[C@H]2O)c1O [Mizoribine],-0.0169
4,Cc1cn([C@@H]2C[C@@H](O)[C@H](CO)O2)c(=O)[nH]c1=O [Telbivudine],-1.69
5,C=C1/C(=C\C=C2/CCC[C@]3(C)[C@@H]([C@H](C)CCCC(C)(C)O)CC[C@@H]23)C[C@@H](O)C[C@@H]1O [Calcitriol],-4.55
6,Cc1ccc(/C(=C\CN2CCCC2)c2ccccn2)cc1 [Triprolidine hydrochloride],0.863
7,CCC[C@H](NC(=O)/C(C#N)=C/c1cccc(Br)n1)c1ccccc1 [Degrasyn (WP1130)],-15.2
8,Cc1c(Cl)cccc1Nc1ncccc1C(=O)O [Clonixin],-0.771
9,C[C@H]1[C@H](NC(=O)/C(=N\OC(C)(C)C(=O)O)c2csc(N)n2)C(=O)N1S(=O)(=O)O [Aztreonam],-0.402
10,OC[C@H]1O[C@@H](OCCc2ccc(O)cc2)[C@H](O)[C@@H](O)[C@@H]1O [Salidroside],1.45
11,CNCCC=C1c2ccccc2CCc2ccccc21 [Nortriptyline hydrochloride],-6.55
12,CCc1c2c(nc3ccc(OC(=O)N4CCC(N5CCCCC5)CC4)cc13)-c1cc3c(c(=O)n1C2)COC(=O)[C@]3(O)CC [Irinotecan],-11
13,CCc1c2c(nc3ccc(OC(=O)N4CCC(N5CCCCC5)CC4)cc13)-c1cc3c(c(=O)n1C2)COC(=O)[C@]3(O)CC [Irinotecan HCl Trihydrate],-6.85
14,C=CCN1CCc2c(cc(O)c(O)c2Cl)C(c2ccccc2)C1 (racemic) [(±)-Chloro-APB hydrobromide],-4.39
15,"CCCCCCN(CCCCCC)C(=O)Cc1c(-c2ccc(F)cc2)[nH]c2ccccc12 [N,N-Dihexyl-2-(4-fluorophenyl)indole-3-acetamide]",-0.886
16,CCN(CC)CCNC(=O)c1ccc(NC(C)=O)cc1 [N-Acetylprocainamide hydrochloride],1.57
17,[Cl-].[Li+] [Lithium Chloride],-0.282
18,CCn1cc(-c2ccnc3[nH]c(-c4cccc(CN(C)C)c4)cc23)c(-c2ccc(NC(=O)N(C)C)cc2)n1,-12.1
19,CCOc1ccn(-c2ccc(F)cc2)c(=O)c1C(=O)Nc1ccc(Oc2ccnc(N)c2Cl)c(F)c1,-2.97
20,CNC[C@H](O)c1cccc(O)c1 [Phenylephrine hydrochloride],-11.1
21,CNC[C@H](O)c1cccc(O)c1 [Phenylephrine HCl],-5.88
22,CC(=O)NNC(=O)N1Cc2ccccc2Oc2ccc(Cl)cc21,-1.06
23,N[C@@H]1CN(c2c(F)cc3c(=O)c(C(=O)O)cn([C@@H]4C[C@@H]4F)c3c2Cl)CC12CC2 [Sitafloxacin Hydrate],-4.79
24,COC(=O)c1ccc2c(c1)NC(=O)/C2=C(\Nc1ccc(N(C)C(=O)CN2CCN(C)CC2)cc1)c1ccccc1 [Nintedanib (BIBF 1120)],-23

row,Compound,total cell number
1,O=C(O[C@@H]1Cc2c(O)cc(O)cc2O[C@@H]1c1cc(O)c(O)c(O)c1)c1cc(O)c(O)c(O)c1 [(-)-Epigallocatechin Gallate],-0.544
2,CC(C)C[C@H](NC(=O)CNC(=O)c1cc(Cl)ccc1Cl)B(O)O,-12.9
3,N#C[C@@H]1CCCN1C(=O)CNC12CC3CC(CC(O)(C3)C1)C2 [Vildagliptin (LAF-237)],-0.534
4,CC(C)C[C@H](NC(=O)[C@@H](O)[C@H](N)Cc1ccccc1)C(=O)O [Bestatin hydrochloride],-1.64
5,C=CCc1ccc(O)c(-c2ccc(O)c(CC=C)c2)c1 [Honokiol],1.57
6,CNC(=C[N+](=O)[O-])NCCSCc1ccc(CN(C)C)o1 [Ranitidine hydrochloride],-0.923
7,CNC(=C[N+](=O)[O-])NCCSCc1ccc(CN(C)C)o1 [Ranitidine],-1.44
8,O=C(O)CN(CCOCCOCCN(CC(=O)O)CC(=O)O)CC(=O)O,-0.161
9,COc1cc2c(cc1OC)-c1cc3ccc(OC)c(OC)c3c[n+]1CC2 [Palmatine chloride],4.91
10,COC(=O)[C@H]1[C@H]2C[C@@H]3c4[nH]c5cc(OC)ccc5c4CCN3C[C@H]2C[C@@H](OC(=O)c2cc(OC)c(OC)c(OC)c2)[C@@H]1OC [Reserpine],-6.23 ± 7.5
11,O=C(O)c1ccc(Nc2ncc3c(n2)-c2ccc(Cl)cc2C(c2c(F)cccc2F)=NC3)cc1,-13
12,Cc1cc(N2CCOCC2)ccc1Nc1nc(NC2CCCCC2)c2[nH]cnc2n1,-8.65
13,C[C@H](NC(=O)Cc1cc(F)cc(F)c1)C(=O)N[C@@H]1C(=O)N(C)c2ccccc2-c2ccccc21,-6.63
14,O=c1c(-c2ccc(O)cc2)coc2cc(O)cc(O)c12 [Genistein],-2.39 ± 0.072
15,OCc1ccc(-c2ccc(-c3ccc(CO)s3)o2)s1,-10.8
16,COc1cc(C=O)ccc1O [Vanillin],-0.142
17,C1=N/C2=N/c3ccc(OCCN4CCCC4)c(c3)COC/C=C/COCc3cccc(c3)C(=C1)N2 [Pacritinib (SB1518)],-16.5
18,COc1ccc2cccc(CCNC(C)=O)c2c1 [Agomelatine],-1.71 ± 1.9
19,C#C[C@]1(O)CC[C@H]2[C@@H]3CCc4cc(OC)ccc4[C@H]3CC[C@@]21C [Mestranol],5.55
20,CN(C)C(=O)c1ccc(S(=O)(=O)c2ccc(NC(=O)[C@@](C)(O)C(F)(F)F)c(Cl)c2)cc1,5.05
21,CC1=C(C)C(=O)C(CCCCC#CCCCC#CCO)=C(C)C1=O,-2.58
22,CN(CCOc1ccc(NS(C)(=O)=O)cc1)CCc1ccc(NS(C)(=O)=O)cc1 [Dofetilide],3.48 ± 2.1
